# Results from the supplement of paper PMC8728848.
# The list shows a part of the results.
# B1: PX9937B-bvu-524-33-524 (Bacteroides vulgatus) (protein)
# chain: GTAYWKNPDQFTAFNTGLHALLREKSYNFFLLGEPRADIYGDNPIGGEASQGMERLPFNTINKENVGISNYGDMYKIINQINQMIAKTTETTILTEATQNYYLGEAYGMRAYLYFHLLRSWGDVVLYLDYTEGQNLDLSNITKGVSPATEVMEQIKKDIQASENAFGSDYSFKLGRHFWSAAATQMLKGEAYLWSGRQMNGGNSDYTIAKNAFENVKKADVGLVTSSFKDIFSFENKKNKEMIFTIHNGKDEYEMWGGYYRMRLIPAQDKMVKIYCDENGNSFVGTPDAQLNGLTQLQVRREFYFKGFRNNDTRWTTSLKAVYKKDAQGVVSYFGPITYKFQGTMLEGGSTRSFLDDFPIYRYADCLLQLAMAKVLLGEDPTEEINAVRERAYGSKYFNEHKAEIAYPNDNDPEFYTDNKWMKPDNAGALEAILKERLREFMFEGKRWYDIRLLGWDYVHQYSSAEQSRLLWPIDAGTLTNNSALKQTPGYE
# Columns and labels:
# Assay in all cases: glycan array binding signal (z-score within array); higher = stronger binding
# Conditions in all cases: glycan notation: IUPAC condensed, linker removed
# [1] = biological target: Neu5Ac(a2-6)Gal(b1-3)GlcNAc(b1-3)[Gal(b1-4)GlcNAc(b1-6)]Gal(b1-4)Glc
# How it was run: (§1)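 Glycan array binding is given as a within-array Z-score, which can be read as non-binding when negative. The arrays, 3228 of them, came from the Consortium for Functional Glycomics database and were retained only where the protein sequence was available. Z-scores were averaged across arrays of the same protein sequence at different concentrations or buffers and across linkers.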
# Neu5Ac(a2-6)Gal(b1-4)Glc = biological target: Neu5Ac(a2-6)Gal(b1-4)Glc
# How it was run: as §1
# [2] = biological target: Neu5Ac(a2-6)Gal(b1-4)GlcNAc
# How it was run: as §1
# [3] = biological target: Neu5Ac(a2-6)Gal(b1-4)GlcNAc(b1-2)Man
# How it was run: as §1
# [4] = biological target: Neu5Ac(a2-6)Gal(b1-4)GlcNAc(b1-2)Man(a1-3)Man(b1-4)GlcNAc(b1-4)GlcNAc
# How it was run: as §1
# [5] = biological target: Neu5Ac(a2-6)Gal(b1-4)GlcNAc(b1-2)Man(a1-3)[Gal(b1-4)GlcNAc(b1-2)Man(a1-6)]Man(b1-4)GlcNAc(b1-4)GlcNAc
# How it was run: as §1
# [6] = biological target: Neu5Ac(a2-6)Gal(b1-4)GlcNAc(b1-2)Man(a1-3)[GlcNAc(b1-2)Man(a1-6)]Man(b1-4)GlcNAc(b1-4)GlcNAc
# How it was run: as §1
# [7] = biological target: Neu5Ac(a2-6)Gal(b1-4)GlcNAc(b1-2)Man(a1-3)[GlcNAc(b1-4)][Neu5Ac(a2-6)Gal(b1-4)GlcNAc(b1-2)Man(a1-6)]Man(b1-4)GlcNAc(b1-4)GlcNAc
# How it was run: as §1
# [8] = biological target: Neu5Ac(a2-6)Gal(b1-4)GlcNAc(b1-2)Man(a1-3)[Man(a1-6)]Man(b1-4)GlcNAc(b1-4)GlcNAc
# How it was run: as §1
# [9] = biological target: Neu5Ac(a2-6)Gal(b1-4)GlcNAc(b1-2)Man(a1-3)[Neu5Ac(a2-3)Gal(b1-4)GlcNAc(b1-2)Man(a1-6)]Man(b1-4)GlcNAc(b1-4)GlcNAc
# How it was run: as §1
# [10] = biological target: Neu5Ac(a2-6)Gal(b1-4)GlcNAc(b1-2)Man(a1-3)[Neu5Ac(a2-6)Gal(b1-4)GlcNAc(b1-2)Man(a1-6)]Man(b1-4)GlcNAc(b1-4)GlcNAc
# How it was run: as §1
# [11] = biological target: Neu5Ac(a2-6)Gal(b1-4)GlcNAc(b1-2)Man(a1-3)[Neu5Ac(a2-6)Gal(b1-4)GlcNAc(b1-2)Man(a1-6)]Man(b1-4)GlcNAc(b1-4)[Fuc(a1-6)]GlcNAc
# How it was run: as §1
# [12] = biological target: Neu5Ac(a2-6)Gal(b1-4)GlcNAc(b1-2)Man(a1-6)Man(b1-4)GlcNAc(b1-4)GlcNAc
# How it was run: as §1
# [13] = biological target: Neu5Ac(a2-6)Gal(b1-4)GlcNAc(b1-2)Man(a1-6)[Gal(b1-4)GlcNAc(b1-2)Man(a1-3)]Man(b1-4)GlcNAc(b1-4)GlcNAc
# How it was run: as §1
# [14] = biological target: Neu5Ac(a2-6)Gal(b1-4)GlcNAc(b1-2)Man(a1-6)[GlcNAc(b1-2)Man(a1-3)]Man(b1-4)GlcNAc(b1-4)GlcNAc
# How it was run: as §1
# [15] = biological target: Neu5Ac(a2-6)Gal(b1-4)GlcNAc(b1-2)Man(a1-6)[Man(a1-3)]Man(b1-4)GlcNAc(b1-4)GlcNAc
# How it was run: as §1
# [16] = biological target: Neu5Ac(a2-6)Gal(b1-4)GlcNAc(b1-2)[Neu5Ac(a2-6)Gal(b1-4)GlcNAc(b1-4)]Man(a1-3)[GlcNAc(b1-4)][Neu5Ac(a2-6)Gal(b1-4)GlcNAc(b1-2)[Neu5Ac(a2-6)Gal(b1-4)GlcNAc(b1-6)]Man(a1-6)]Man(b1-4)GlcNAc(b1-4)GlcNAc
# How it was run: as §1
# [17] = biological target: Neu5Ac(a2-6)Gal(b1-4)GlcNAc(b1-2)[Neu5Ac(a2-6)Gal(b1-4)GlcNAc(b1-4)]Man(a1-3)[GlcNAc(b1-4)][Neu5Ac(a2-6)Gal(b1-4)GlcNAc(b1-4)Man(a1-6)]Man(b1-4)GlcNAc(b1-4)GlcNAc
# How it was run: as §1
# [18] = biological target: Neu5Ac(a2-6)Gal(b1-4)GlcNAc(b1-2)[Neu5Ac(a2-6)Gal(b1-4)GlcNAc(b1-6)]Man(a1-6)[Neu5Ac(a2-6)Gal(b1-4)GlcNAc(b1-2)Man(a1-3)][GlcNAc(b1-4)]Man(b1-4)GlcNAc(b1-4)GlcNAc
# How it was run: as §1
# [19] = biological target: Neu5Ac(a2-6)Gal(b1-4)GlcNAc(b1-3)Gal(b1-3)GlcNAc
# How it was run: as §1
# [20] = biological target: Neu5Ac(a2-6)Gal(b1-4)GlcNAc(b1-3)Gal(b1-4)GlcNAc
# How it was run: as §1
# [21] = biological target: Neu5Ac(a2-6)Gal(b1-4)GlcNAc(b1-3)Gal(b1-4)GlcNAc(b1-2)Man(a1-3)[Neu5Ac(a2-6)Gal(b1-4)GlcNAc(b1-3)Gal(b1-4)GlcNAc(b1-2)Man(a1-6)]GalNAc
# How it was run: as §1
# [22] = biological target: Neu5Ac(a2-6)Gal(b1-4)GlcNAc(b1-3)Gal(b1-4)GlcNAc(b1-3)Gal(b1-4)GlcNAc
# How it was run: as §1
# [23] = biological target: Neu5Ac(a2-6)Gal(b1-4)GlcNAc(b1-3)Gal(b1-4)GlcNAc(b1-3)Gal(b1-4)GlcNAc(b1-2)Man(a1-3)[Neu5Ac(a2-6)Gal(b1-4)GlcNAc(b1-3)Gal(b1-4)GlcNAc(b1-3)Gal(b1-4)GlcNAc(b1-2)Man(a1-6)]GalNAc
# How it was run: as §1
# [24] = biological target: Neu5Ac(a2-6)Gal(b1-4)GlcNAc(b1-3)Gal(b1-4)GlcNAc(b1-3)GalNAc
# How it was run: as §1
# [25] = biological target: Neu5Ac(a2-6)Gal(b1-4)GlcNAc(b1-3)Gal(b1-4)GlcNAc(b1-3)[Neu5Ac(a2-6)Gal(b1-4)GlcNAc(b1-3)Gal(b1-4)GlcNAc(b1-6)]GalNAc
# How it was run: as §1
# [26] = biological target: Neu5Ac(a2-6)Gal(b1-4)GlcNAc(b1-3)Gal(b1-4)GlcNAc(b1-6)[Gal(b1-3)]GalNAc
# How it was run: as §1
# [27] = biological target: Neu5Ac(a2-6)Gal(b1-4)GlcNAc(b1-3)Gal(b1-4)[Fuc(a1-3)]GlcNAc(b1-3)Gal(b1-4)[Fuc(a1-3)]GlcNAc
# How it was run: as §1
# [28] = biological target: Neu5Ac(a2-6)Gal(b1-4)GlcNAc(b1-3)GalNAc
# How it was run: as §1
# [29] = biological target: Neu5Ac(a2-6)Gal(b1-4)GlcNAc(b1-3)[Neu5Ac(a2-6)Gal(b1-4)GlcNAc(b1-6)]GalNAc
# How it was run: as §1
# [30] = biological target: Neu5Ac(a2-6)Gal(b1-4)GlcNAc(b1-6)GalNAc
# How it was run: as §1
# [31] = biological target: Neu5Ac(a2-6)Gal(b1-4)GlcNAc(b1-6)[Gal(b1-3)GlcNAc(b1-3)]Gal(b1-4)Glc
# How it was run: as §1
# [32] = biological target: Neu5Ac(a2-6)Gal(b1-4)GlcNAc(b1-6)[Gal(b1-3)]GalNAc
# How it was run: as §1
# [33] = biological target: Neu5Ac(a2-6)Gal(b1-4)GlcNAc6S
# How it was run: as §1
# Neu5Ac(a2-6)GalNAc = biological target: Neu5Ac(a2-6)GalNAc
# How it was run: as §1
# [34] = biological target: Neu5Ac(a2-6)GalNAc(b1-4)GlcNAc
# How it was run: as §1
# [35] = biological target: Neu5Ac(a2-6)GalNAc(b1-4)GlcNAc6S
# How it was run: as §1
# [36] = biological target: Neu5Ac(a2-6)GlcNAc(b1-4)GlcNAc
# How it was run: as §1
binder,measurement,setting,value
B1,glycan array binding signal (z-score),[1],-0.392
same,glycan array binding signal (z-score),Neu5Ac(a2-6)Gal(b1-4)Glc,-0.148
same,glycan array binding signal (z-score),[2],-0.274
same,glycan array binding signal (z-score),[3],-0.342
same,glycan array binding signal (z-score),[4],-0.068
same,glycan array binding signal (z-score),[5],0.451
same,glycan array binding signal (z-score),[6],-0.389
same,glycan array binding signal (z-score),[7],-0.093
same,glycan array binding signal (z-score),[8],-0.473
same,glycan array binding signal (z-score),[9],-0.399
same,glycan array binding signal (z-score),[10],-0.063
same,glycan array binding signal (z-score),[11],0.782
same,glycan array binding signal (z-score),[12],-0.238
same,glycan array binding signal (z-score),[13],-0.423
same,glycan array binding signal (z-score),[14],0.042
same,glycan array binding signal (z-score),[15],-0.299
same,glycan array binding signal (z-score),[16],-0.111
same,glycan array binding signal (z-score),[17],0.017
same,glycan array binding signal (z-score),[18],-0.321
same,glycan array binding signal (z-score),[19],-0.292
same,glycan array binding signal (z-score),[20],-0.184
same,glycan array binding signal (z-score),[21],-0.236
same,glycan array binding signal (z-score),[22],-0.4
same,glycan array binding signal (z-score),[23],1.34
same,glycan array binding signal (z-score),[24],-0.066
same,glycan array binding signal (z-score),[25],-0.402
same,glycan array binding signal (z-score),[26],0.172
same,glycan array binding signal (z-score),[27],-0.192
same,glycan array binding signal (z-score),[28],0.234
same,glycan array binding signal (z-score),[29],-0.386
same,glycan array binding signal (z-score),[30],-0.375
same,glycan array binding signal (z-score),[31],0.226
same,glycan array binding signal (z-score),[32],-0.223
same,glycan array binding signal (z-score),[33],-0.386
same,glycan array binding signal (z-score),Neu5Ac(a2-6)GalNAc,-0.366
same,glycan array binding signal (z-score),[34],-0.319
same,glycan array binding signal (z-score),[35],-0.369
same,glycan array binding signal (z-score),[36],-0.273
